# Results as given in paper PMC4336329 (PLoS ONE, 2015).
# Hit rate of the full screen: of about 310,000 compounds, about 2,200 (0.71%) showed an effect of 50% or more. Effects have a minus sign here. The list shows a part of the results.
# Biological target: human ether-à-go-go-related gene (hERG) potassium channel (human, UniProt Q12809)
# Assay: primary screen, population patch clamp on CHO cells stably expressing hERG
# Chain of human ether-à-go-go-related gene (hERG) potassium channel (Q12809 whole entry, looked up): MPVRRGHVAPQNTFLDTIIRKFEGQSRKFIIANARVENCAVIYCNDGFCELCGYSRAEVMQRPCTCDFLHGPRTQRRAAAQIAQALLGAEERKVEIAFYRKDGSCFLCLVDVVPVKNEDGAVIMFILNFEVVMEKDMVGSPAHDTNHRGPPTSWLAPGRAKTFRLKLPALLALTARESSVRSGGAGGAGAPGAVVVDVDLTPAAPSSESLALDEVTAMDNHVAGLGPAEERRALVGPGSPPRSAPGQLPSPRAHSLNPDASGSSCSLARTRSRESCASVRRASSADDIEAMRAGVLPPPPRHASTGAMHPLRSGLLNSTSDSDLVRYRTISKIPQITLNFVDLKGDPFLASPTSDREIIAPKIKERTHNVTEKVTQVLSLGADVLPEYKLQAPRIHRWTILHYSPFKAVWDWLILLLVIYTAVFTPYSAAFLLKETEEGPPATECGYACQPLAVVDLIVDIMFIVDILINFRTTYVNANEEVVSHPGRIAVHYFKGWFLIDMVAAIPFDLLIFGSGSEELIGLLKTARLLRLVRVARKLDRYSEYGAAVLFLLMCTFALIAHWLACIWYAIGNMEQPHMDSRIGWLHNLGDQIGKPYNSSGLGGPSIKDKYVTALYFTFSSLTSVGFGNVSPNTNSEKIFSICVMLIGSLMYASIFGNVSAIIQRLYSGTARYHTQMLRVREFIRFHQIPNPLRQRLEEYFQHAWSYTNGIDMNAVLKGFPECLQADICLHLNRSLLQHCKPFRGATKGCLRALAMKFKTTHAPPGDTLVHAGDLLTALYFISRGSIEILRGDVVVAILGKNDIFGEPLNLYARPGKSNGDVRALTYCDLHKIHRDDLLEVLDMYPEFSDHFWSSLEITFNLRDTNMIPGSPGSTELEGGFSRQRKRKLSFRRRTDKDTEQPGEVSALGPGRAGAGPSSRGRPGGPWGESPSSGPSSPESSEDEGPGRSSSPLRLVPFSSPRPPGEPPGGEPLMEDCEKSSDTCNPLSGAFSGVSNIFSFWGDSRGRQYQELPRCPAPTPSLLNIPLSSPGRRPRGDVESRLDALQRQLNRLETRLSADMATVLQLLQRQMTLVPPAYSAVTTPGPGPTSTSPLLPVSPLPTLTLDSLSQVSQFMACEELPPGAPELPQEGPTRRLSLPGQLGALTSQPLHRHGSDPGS
row,Structure (SMILES),"hERG current change (%, negative = inhibition) at 1uM"
1,CCOc1cc(N2CCOCC2)c(OCC)cc1NC(=O)CN1CCN(Cc2ccc3c(c2)OCO3)CC1.Cl,-12.2%
2,CC(=O)Nc1ccc2nc(NC(=O)C(Cl)(Cl)Cl)sc2c1,4.61%
3,CCOc1ccc(-n2c(-c3ccco3)nc3c(cnn3-c3ccc(C)cc3)c2=O)cc1,8.79%
4,O=C(OCC(=O)c1c[nH]c2ccccc12)c1cccc([N+](=O)[O-])c1,-4.24%
5,O=C(CSc1ncnc2c1oc1ccccc12)NCC1CCCO1 (centres unmarked),7.54%
6,CN(C)c1ccc(C(=O)N2CCCC(N3CCN(Cc4ccc5c(c4)OCO5)CC3)C2)cc1 (centres unmarked),-39.6%
7,COCCNC(=O)N1[C@H]2CC[C@@H]1C(C(=O)OC)=C(c1cccc(C#N)c1)C2,14%
8,Cc1cc(C)n(CCOC(=O)c2sc3ccccc3c2Cl)n1,13.2%
9,CCOc1cccc2sc(N(CCN(C)C)C(=O)c3ccc4c(c3)OCCO4)nc12.Cl,-1.06%
10,CCN(CC)c1ccc(/C=N/Nc2nn[nH]n2)cc1,9.69%
11,S=C(c1ccc2c(c1)OCO2)N1CCCCCC1,8.09%
12,O=C(NCc1ccccc1)c1cnc(-c2ccccn2)nc1C(F)(F)F,9.39%
13,COc1cc(CNS(=O)(=O)CCl)cc(OC)c1OC,15%
14,O=c1c(Cl)c(N2CCN(c3ccc(F)cc3)CC2)cnn1-c1nc2ccccc2s1,9.72%
15,O=C(CCNC(=O)c1ccc([N+](=O)[O-])cc1)NCCc1ccc(Cl)cc1,-5.18%
16,C=CCN(c1ccccc1)S(=O)(=O)c1cccc(C(=O)N2CCCC2)c1,-2.9%
17,CN(Cc1ccc(OC(F)F)cc1)C(=O)C1CCN(S(=O)(=O)c2ccc3c(c2)OCCO3)CC1,-9.72%
18,CCN1CCN(c2ccc(S(=O)(=O)N3CCCCC3)cc2NC(=O)c2ccc([N+](=O)[O-])o2)CC1,-73.3%
19,O=C(CN1C(=O)NC2(CCCCC2)C1=O)Nc1ccc(S(=O)(=O)N2CCOCC2)cc1,8.53%
20,O=C(NC1CCN(C(=O)Nc2ccc(F)cc2)CC1)c1ccc(F)cc1,-9.54%
21,COc1ccc2c(c1)CC/C(=C\c1ccc(C)o1)C2=O,14.4%
22,O=C(O)c1ccccc1C(=O)Nc1ccc(Nc2ccc([N+](=O)[O-])cc2[N+](=O)[O-])cc1,14.2%

row,Structure (SMILES),"hERG current change (%, negative = inhibition) at 1uM"
1,CCCC(=NCCc1c(C)[nH]c2ccccc12)C1=C(O)CC(c2ccccc2)CC1=O (centres unmarked),-11.1%
2,CCOC(=O)c1ccc(NC(=O)N2C[C@@H]3C[C@@H](C2)c2cccc(=O)n2C3)cc1,7.4%
3,Cc1onc(-c2ccccc2)c1C(=O)NNC(=S)NC(=O)c1ccc(Br)cc1,11.3%
4,COc1ccccc1C(=O)Nc1ncc2c(n1)CC(c1ccco1)CC2=O (centres unmarked),2.28%
5,CCCc1sc(N/N=C/c2ccccn2)nc1-c1ccc(Br)cc1,6.14%
6,CC1CCN(C(=O)CSc2nnc3c(n2)[nH]c2ccccc23)CC1,7.11%
7,O=C(Nc1ccccc1C(=O)N1CCN(Cc2ccccc2)CC1)c1ccc(F)cc1,-6.84%
8,O=C1CN(S(=O)(=O)c2ccc(Cl)cc2)CC(=O)N1CCc1ccccc1,8.9%
9,Cn1ccnc1SCC(=O)Nc1cccc([N+](=O)[O-])c1,6.96%
10,CCn1c(-c2ccccc2)ccc(C#N)c1=O,3.55%
11,CCN(C(=O)COC(=O)c1c(-c2ccccc2)noc1C)C1CCS(=O)(=O)C1 (centres unmarked),-10.7%
12,Cc1c(NC(C)c2ccccc2O)c(=O)n(-c2ccccc2)n1C (centres unmarked),10.2%
13,Cc1ccc(NC(=O)N/C=C/c2ccccc2)cc1,13.1%
14,COc1ccc(NC(=O)Nc2ccc(Br)cn2)cc1,17.2%
15,O=C(CSc1nnc(-c2cccs2)o1)N1CCCCC1,7.04%
16,CCOc1ccc(C2C(C(=O)OC)=CN(CCOC)C=C2C(=O)OC)cc1,7.84%
17,COCCNC(=S)N1CCN(C/C=C/c2ccccc2)CC1,28.8%
18,COc1ccc(CCNc2ccc(S(N)(=O)=O)cn2)cc1,16%
19,CC1(C)OC(c2ccccc2)=C/C(=C/C=C2C(=O)NC(=S)NC2=O)O1,2.1%
20,COc1ccc(Nc2cc(Nc3ccc(OC)cc3)ncn2)cc1,7.83%
21,Cn1c(=O)c2c(nc(CN3CCN(C(c4ccccc4)c4ccccc4)CC3)n2CCCO)n(C)c1=O,9.79%
22,Cc1nn(-c2ccccc2)c(C)c1Cc1ccc(O)cc1,12.3%

row,Structure (SMILES),"hERG current change (%, negative = inhibition) at 1uM"
1,CCc1ccc(CNC(=O)Cc2ccc(NC(=O)C3=C(C)OCCS3)cc2)cc1,25.4%
2,Cc1nnc(CN(C)C(=O)c2cc(COc3ccc(F)cc3Cl)on2)o1,3.7%
3,CCC(O)c1cc2c(cc1NC(=O)c1cccs1)OCCO2 (centres unmarked),5.82%
4,Cc1ccccc1C(=O)Nc1cccc(C(=O)Nc2ccccc2C(=O)O)c1,14.1%
5,COc1ccc(NC(=O)CCCN2C(=O)C3C4C=CC(C4)C3C2=O)c(OC)c1 (centres unmarked),1.46%
6,CCOc1cc(/C=N/NC(=O)c2cc3c(ccc4ccccc43)o2)ccc1O,14.3%
7,Cc1cccc(C)c1OCc1cc(C(=O)NCC2CC2)no1,10.8%
8,Cc1cc(NC(=O)C2CC(=O)N(c3cccc(C)c3C)C2)no1 (centres unmarked),6.32%
9,COc1ccc2[nH]cc(CCNC(=O)Nc3ccccc3)c2c1,16.2%
10,Cc1ccc(-n2ncc(C(=O)Nc3cc(Cl)ccc3C)c2C2CCNCC2)cc1C.Cl,0.625%
11,O=C(CSc1n[nH]c(-c2ccccc2O)n1)N1CCCc2ccccc21,18.3%
12,Cc1c(C)c2c(OCC(=O)NCc3ccco3)cc3c(c2oc1=O)CCC(C)(C)O3,14.2%
13,Cn1c(SCc2ccccc2)nc(N)c(N=O)c1=O,-6.82%
14,CCOc1ccccc1N1CCN(C(=O)c2ccc(S(=O)(=O)Nc3ccccc3)cc2)CC1,20.4%
15,COc1ccc(NS(=O)(=O)c2ccc(OC)c(OC)c2)cc1OC,17.3%
16,O=C(N/N=C/c1cccnc1)c1ccc(NC(=O)c2ccc(F)cc2)cc1,12.5%
17,CCOC(=O)c1[nH]c2c(c1C)C(=O)CC(c1ccco1)C2 (centres unmarked),4.54%
18,C=CCn1c(SCC(=O)NC(=O)c2cccc([N+](=O)[O-])c2)nnc1-c1ccccc1F,11.3%
19,Cc1nn(-c2ccccc2)c2c1C1(C(=O)N(C(C)C)c3ccccc31)C(C#N)=C(N)O2 (centres unmarked),3.34%
20,CCOc1ccc(C(=O)NC(=S)Nc2cccc(S(=O)(=O)NC3=NCCC3)c2)cc1,6.67%
21,COc1ccc(CCN2C(=O)CC(NNC(=O)c3cccc(O)c3)C2=O)cc1 (centres unmarked),9.76%
22,CC(C)C(NC(=O)c1ccccc1)C(=O)OCC(=O)N1CCCC1 (centres unmarked),5.16%

row,Structure (SMILES),"hERG current change (%, negative = inhibition) at 1uM"
1,CCN(CC(=O)Nc1ccc(OC)cc1)CC(=O)Nc1sc2c(c1C(=O)OC)CCCC2,9.08%
2,Cc1ccc(C)c(OCC(=O)Nc2cc(NC(=O)COc3cc(C)ccc3C)cc(C(=O)O)c2)c1,17.7%
3,CCOC(=O)c1c(C)[nH]c(C(=O)OCc2c(C)noc2C)c1C,11.2%
4,Cc1nn(CCCC(=O)NCCc2ccccc2)c(C)c1[N+](=O)[O-],-1.22%
5,CCOc1ccc(NC(=O)C(C)Oc2ccc(C#N)cc2)cc1S(=O)(=O)N1CCCC1 (centres unmarked),-0.263%
6,COc1ccc(S(=O)(=O)N2CCC(n3cnc4ccccc43)CC2)cc1,-6.31%
7,Cc1ccc(NC2c3ncccc3C(=O)N2c2ccccc2C)cc1C (centres unmarked),14.4%
8,COc1cccc(C(=O)NCc2ccc3c(c2)cc(C)n3C)c1,15%
9,Cc1csc(SCC(=O)NC(=O)NC(C)(C)C)n1,11.5%
10,CC(C)(C)c1ccc(-c2noc(C(=O)NN)n2)cc1,13.4%
11,NC(=O)C1CCN(C(=O)CCNS(=O)(=O)c2ccccc2F)CC1,5.35%
12,Cc1nc2c(C(=O)NCc3ccc4c(c3)OCO4)cnn2c(C)c1Cc1ccc(F)cc1Cl,-8.71%
13,Cc1ccc(C)c(NC(=S)NCCc2cnc[nH]2)c1,9.12%
14,O=C(Nc1ccccn1)c1ccc2ccccc2n1,3.73%
15,C/C(CC(=O)Nc1ccccn1)=N\NC(=O)c1ccc2ccccc2c1,16.2%
16,CCOc1ccc(S(=O)(=O)NCCCl)cc1,11.6%
17,CC1=NN(C(=O)COc2ccc(C)c(C)c2)C(O)(c2ccc(Cl)cc2)C1 (centres unmarked),5.76%
18,CN(C)C(=O)OCc1n(C)cc[n+]1C.Cc1ccc(S(=O)(=O)[O-])cc1,13.4%
19,CCCSCCCNC(=O)CN1C(=O)COc2ccc(S(=O)(=O)N3CCCC3)cc21,11.9%
20,O=C1NC(=O)C(C(CC(=O)c2ccccc2)c2ccccc2)C(=O)N1 (centres unmarked),14.3%
